Test results reported in the supplement of paper PMC3334620.
Over roughly 33,000 sequences, “E-score (-0.5 to 0.5)” has its median near -0.01; the highest 2% begin near 0.26. The list shows a part of the results.

Biological target: Ste12 (UniProt P13574)
Experiment: PBM E-score (8-mer binding enrichment) (E-score (-0.5 to 0.5)); higher = stronger / more preferred TF binding; most listed sequences are background and not binding sites
Settings: protein concentration: 200 nM; construct: GST-DNA-binding domain
Procedure, shortened: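 E-scores (a modified Wilcoxon-Mann-Whitney statistic) were assigned by the Universal PBM Analysis Suite to every ungapped eight-base word pooled with its reverse complement. The input came from universal all-10-mer Agilent arrays made double-stranded by primer extension and probed with GST-tagged yeast transcription factors at about 100-200 nM. Fluorescent anti-GST detected bound protein, and masliner normalised the scans.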

| Sequence | PBM E-score |
| --- | --- |
| ATCACCCC | 0.206 |
| AACTTATC | 0.0734 |
| CTTTGGGA | 0.0925 |
| CTGTACAG | 0.0159 |
| AGGATCCT | -0.0539 |
| ACATTACG | 0.02 |
| ATGCTTGC | -0.256 |
| CCCCACAA | 0.2 |
| CCGACAGA | 0.213 |
| CGCCTCTA | -0.0334 |
| CGAAGCTA | -0.109 |
| GCAACAAA | 0.165 |
| AGAGTGAA | 0.212 |
| GGCTAGAA | 0.0675 |
| ACGCCCCT | 0.00926 |
| ACGACCAC | -0.129 |
| AGAGGCGC | -0.122 |
| GGAATACA | 0.0679 |
| ACCAAGAG | -0.117 |
| CTAACAAG | 0.0938 |
| ACGTTCCT | -0.0389 |
| GAGCTCAA | -0.0663 |
| ATCGGGGA | 0.048 |
| AGCGGATA | -0.138 |
| CGGCTCTC | -0.00045 |

| Sequence | PBM E-score |
| --- | --- |
| CGGCGCCC | -0.0583 |
| AAAGTCGC | 0.282 |
| AATCAGAG | 0.0937 |
| GGACTAAA | 0.0661 |
| CGATCGGC | 0.222 |
| CAAGAGAA | 0.00775 |
| ACGACGTC | -0.0648 |
| CGTACTGA | -0.0801 |
| CGGACTGA | -0.109 |
| GTAACACA | 0.22 |
| AACAGTAG | 0.0927 |
| CGCCCCTA | 0.214 |
| ATAACTGC | 0.0455 |
| AGCAAGTC | -0.142 |
| ACGGAGCT | -0.2 |
| ATTTTCTG | 0.0989 |
| AAGCCCCA | -0.237 |
| ATCTATCG | -0.158 |
| ACACCCCG | -0.105 |
| GCCTAGGA | -0.28 |
| CAATTGAG | 0.0566 |
| CTGCTTGC | -0.0733 |
| ACTTAGCT | -0.201 |
| ATCTGTAA | 0.0995 |
| AACTAACG | 0.0335 |

| Sequence | PBM E-score |
| --- | --- |
| ACCTGTCT | -0.129 |
| ACAGCACA | 0.0988 |
| CGGCTTTA | 0.119 |
| GCCCCGCA | -0.112 |
| GCATCCGA | -0.0885 |
| AGTCGACC | -0.188 |
| TACGGCCA | -0.0301 |
| GCGAGAAC | -0.0267 |
| CCCGAAGA | -0.0126 |
| CCAAACGA | 0.0156 |
| ATGGGCAG | -0.0812 |
| ACAAGGGA | -0.157 |
| AGTTGTAG | 0.055 |
| GCTGCGCA | -0.229 |
| ACGCTCGA | 0.0566 |
| CCGTATTC | 0.0233 |
| AGCTGACA | -0.0833 |
| AGCGGCCT | -0.213 |
| CCTTTGCA | -0.202 |
| GCTAAGTA | 0.0653 |
| AAGTCCGG | -0.155 |
| GATTCTAA | 0.0387 |
| AAATCGGA | 0.0787 |
| GTCATTGA | -0.0606 |
| ACCTATTC | -0.152 |

| Sequence | PBM E-score |
| --- | --- |
| AAAGGCTA | -0.00034 |
| ACCGCACA | -0.166 |
| ACGTCGGC | -0.172 |
| CCTCCAAA | 0.104 |
| GCGTCACA | 0.1 |
| CACACCGC | 0.0397 |
| AACATAGG | 0.0615 |
| TAAACTGA | 0.218 |
| AGTAAGAG | -0.0537 |
| GCACCCCA | 0.149 |
| ATGAATTG | 0.0843 |
| GTCAGCGA | -0.14 |
| AATCAGGG | -0.264 |
| ACGGGACG | -0.131 |
| CCCACCAG | -0.0399 |
| ATGAGTCA | -0.0404 |
| ATATTCAG | 0.103 |
| AAAATACT | 0.235 |
| CAAGTCCG | -0.204 |
| AAATATGT | 0.226 |
| CCCGTAGA | -0.397 |
| ACCACGGT | -0.337 |
| ACAATCGC | 0.0816 |
| AGGTCTAA | -0.0263 |
| ACATGCCC | -0.251 |

| Sequence | PBM E-score |
| --- | --- |
| AGGCGAAC | -0.083 |
| GAGAAGCA | 0.00487 |
| CTAATAAA | 0.145 |
| AACTAAGG | -0.0428 |
| CGACCCTC | -0.109 |
| GGCTTTGA | -0.146 |
| AAGGCGTG | -0.145 |
| GACGCCCA | 0.219 |
| ACATCCCA | -0.0882 |
| CCGTTAGG | -0.156 |
| AGGCCAAT | -0.14 |
| AGCTAACA | 0.0564 |
| CAATAGAC | -0.0408 |
| ATCCCTAC | 0.00727 |
| GAGAGGGA | -0.239 |
| AATTATGG | -0.0149 |
| CCAGCCCC | -0.0634 |
| TGGTCAAA | 0.0917 |
| GTGTTGGA | -0.0728 |
| CACCTTAA | 0.0107 |
| CGGGTCAA | 0.0841 |
| CATCGTAC | -0.0407 |
| GTCGACAC | 0.0215 |
| TACGTAAA | 0.0382 |
| TGTGAACA | 0.146 |

| Sequence | PBM E-score |
| --- | --- |
| AGATCAGC | -0.0592 |
| CCATTACC | 0.00961 |
| CGAAAATA | 0.124 |
| GAGAGTTA | 0.031 |
| ATCTCTTC | 0.209 |
| ACTCGCGC | 0.118 |
| AAACTTAT | 0.248 |
| AGGCAAGA | 0.00793 |
| TGGGTCAA | -0.163 |
| CTTTATTA | 0.112 |
| CATCCGCA | 0.0163 |
| CGACGACG | -0.072 |
| ACCGGTTC | -0.0305 |
| CATCTAGC | -0.217 |
| ATGAAGCG | -0.0717 |
| CACGTTCC | 0.0363 |
| CAAACACA | 0.121 |
| AGGTCGCC | -0.19 |
| AGAGTAGA | -0.0237 |
| CGCGACGA | 0.0977 |
| CAAGCTAG | -0.0127 |
| AGATTACG | -0.0185 |
| TTTCCAAA | 0.237 |
| TATAATAA | 0.141 |
| AGACCTTA | 0.128 |

| Sequence | PBM E-score |
| --- | --- |
| CCAATGGG | -0.234 |
| TATATAAA | 0.267 |
| ACCTCACC | -0.029 |
| CATTCTCA | 0.222 |
| ACTCATGA | 0.124 |
| GTTGATGA | -0.0166 |
| AGGACGAC | -0.271 |
| CATACGCA | 0.00492 |
| CACGGCCG | 0.104 |
| GATTTTGA | 0.228 |
| AATTTATG | 0.205 |
| GTTCTTCA | 0.0585 |
| GTGTGTGA | 0.142 |
| ATGGCAAC | -0.0144 |
| GAATGGTA | -0.00973 |
| AAATCGTA | 0.181 |
| CACACAGG | 0.166 |
| GCTGCCAA | -0.196 |
| ATATGGCA | -0.0191 |
| CACCCACG | 0.0855 |
| GATGTTGC | 0.00426 |
| ACAGACTC | -0.173 |
